# Measured values taken from PMC12820563.
# The list shows a part of the results. The list includes weakly bound sequences.
# Target: T1, MBP-FoxP3dN (UniProt Q99JB6)
# T1 sequence: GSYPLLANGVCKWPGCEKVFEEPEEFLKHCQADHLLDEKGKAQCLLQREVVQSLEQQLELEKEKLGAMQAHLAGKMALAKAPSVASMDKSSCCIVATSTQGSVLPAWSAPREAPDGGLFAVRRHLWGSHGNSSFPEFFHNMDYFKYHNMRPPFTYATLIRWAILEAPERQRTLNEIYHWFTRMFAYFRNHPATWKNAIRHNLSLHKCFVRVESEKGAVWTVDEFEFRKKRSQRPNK
# Assay: PD-seq (MBP pull-down with sequencing)
# Conditions: 20 mM Tris-HCl pH 7.5, 100 mM NaCl, 1.5 mM MgCl2, 0.4 uM protein, 0.1 uM dsDNA library, 30 min, room temperature, amylose pull-down; high values mean tight binding; double strand, one strand shown
row,Sequence,binding signal (RPM ratio (pull-down/input))
1,GATGATTGTTCTCCCAGCTGATGAATTTAGCGTGTCGAGTAAACAAATTTTCCTAATCTTTCTGTTCAAGCGCCATCTAC,4.2
2,GATGATTGTTCTCCCAGCTGATGAATTTTGACAGTCGAGTAAACAAATTTTCCTAATCTTTCTGTTCAAGCGCCATCTAC,0.594
3,GATGATTGTTCTCCCAGCTGATGAATTAATCAGCTCGAGTAAACAAATTTTCCTAATCTTTCTGTTCAAGCGCCATCTAC,0.347
4,GATGATTGTTCTCCCAGCTGATGAATTAAGGAGCTCGAGTAAACAAATTTTCCTAATCTTTCTGTTCAAGCGCCATCTAC,0.186
5,GATGATTGTTCTCCCAGCTGATGAATTCCGTTTATCGAGTAAACAAATTTTCCTAATCTTTCTGTTCAAGCGCCATCTAC,3.08
6,GATGATTGTTCTCCCAGCTGATGAATTGGTCAGCTCGAGTAAACAAATTTTCCTAATCTTTCTGTTCAAGCGCCATCTAC,0.344
7,GATGATTGTTCTCCCAGCTGATGAATTACCCGGCTCGAGTAAACAAATTTTCCTAATCTTTCTGTTCAAGCGCCATCTAC,0.196
8,GATGATTGTTCTCCCAGCTGATGAATTACGCCAGTCGAGTAAACAAATTTTCCTAATCTTTCTGTTCAAGCGCCATCTAC,2.27
9,GATGATTGTTCTCCCAGCTGATGAATTTCACATGTCGAGTAAACAAATTTTCCTAATCTTTCTGTTCAAGCGCCATCTAC,0.401
10,GATGATTGTTCTCCCAGCTGATGAATTGGTGTATTCGAGTAAACAAATTTTCCTAATCTTTCTGTTCAAGCGCCATCTAC,3.3
11,GATGATTGTTCTCCCAGCTGATGAATTACGGTTATCGAGTAAACAAATTTTCCTAATCTTTCTGTTCAAGCGCCATCTAC,1.12
12,GATGATTGTTCTCCCAGCTGATGAATTATTCCAGTCGAGTAAACAAATTTTCCTAATCTTTCTGTTCAAGCGCCATCTAC,0.274
13,GATGATTGTTCTCCCAGCTGATGAATTAAAACAATCGAGTAAACAAATTTTCCTAATCTTTCTGTTCAAGCGCCATCTAC,1.47
14,GATGATTGTTCTCCCAGCTGATGAATTATCCTGTTCGAGTAAACAAATTTTCCTAATCTTTCTGTTCAAGCGCCATCTAC,0.313
15,GATGATTGTTCTCCCAGCTGATGAATTGTTAGGGTCGAGTAAACAAATTTTCCTAATCTTTCTGTTCAAGCGCCATCTAC,0.936
16,GATGATTGTTCTCCCAGCTGATGAATTAATATATTCGAGTAAACAAATTTTCCTAATCTTTCTGTTCAAGCGCCATCTAC,0.844
17,GATGATTGTTCTCCCAGCTGATGAATTACGGCAGTCGAGTAAACAAATTTTCCTAATCTTTCTGTTCAAGCGCCATCTAC,0.438
18,GATGATTGTTCTCCCAGCTGATGAATTATCCACCTCGAGTAAACAAATTTTCCTAATCTTTCTGTTCAAGCGCCATCTAC,0.22
19,GATGATTGTTCTCCCAGCTGATGAATTAGCTTTCTCGAGTAAACAAATTTTCCTAATCTTTCTGTTCAAGCGCCATCTAC,2.83
20,GATGATTGTTCTCCCAGCTGATGAATTGGAAGGTTCGAGTAAACAAATTTTCCTAATCTTTCTGTTCAAGCGCCATCTAC,0.253
21,GATGATTGTTCTCCCAGCTGATGAATTGCAAGATTCGAGTAAACAAATTTTCCTAATCTTTCTGTTCAAGCGCCATCTAC,0.566

row,Sequence,binding signal (RPM ratio (pull-down/input))
1,GATGATTGTTCTCCCAGCTGATGAATTGCCCTGTTCGAGTAAACAAATTTTCCTAATCTTTCTGTTCAAGCGCCATCTAC,0.494
2,GATGATTGTTCTCCCAGCTGATGAATTGCGGGCCTCGAGTAAACAAATTTTCCTAATCTTTCTGTTCAAGCGCCATCTAC,0.785
3,GATGATTGTTCTCCCAGCTGATGAATTATGTAGCTCGAGTAAACAAATTTTCCTAATCTTTCTGTTCAAGCGCCATCTAC,2.18
4,GATGATTGTTCTCCCAGCTGATGAATTAAATACGTCGAGTAAACAAATTTTCCTAATCTTTCTGTTCAAGCGCCATCTAC,0.388
5,GATGATTGTTCTCCCAGCTGATGAATTGTCCTCTTCGAGTAAACAAATTTTCCTAATCTTTCTGTTCAAGCGCCATCTAC,0.405
6,GATGATTGTTCTCCCAGCTGATGAATTTTGGACATCGAGTAAACAAATTTTCCTAATCTTTCTGTTCAAGCGCCATCTAC,0.502
7,GATGATTGTTCTCCCAGCTGATGAATTACGGGGCTCGAGTAAACAAATTTTCCTAATCTTTCTGTTCAAGCGCCATCTAC,0.363
8,GATGATTGTTCTCCCAGCTGATGAATTACTCACTTCGAGTAAACAAATTTTCCTAATCTTTCTGTTCAAGCGCCATCTAC,0.403
9,GATGATTGTTCTCCCAGCTGATGAATTCCGCGCTTCGAGTAAACAAATTTTCCTAATCTTTCTGTTCAAGCGCCATCTAC,1.07
10,GATGATTGTTCTCCCAGCTGATGAATTGTTAAAATCGAGTAAACAAATTTTCCTAATCTTTCTGTTCAAGCGCCATCTAC,0.291
11,GATGATTGTTCTCCCAGCTGATGAATTGGCATCATCGAGTAAACAAATTTTCCTAATCTTTCTGTTCAAGCGCCATCTAC,3.24
12,GATGATTGTTCTCCCAGCTGATGAATTTCTGCCGTCGAGTAAACAAATTTTCCTAATCTTTCTGTTCAAGCGCCATCTAC,0.478
13,GATGATTGTTCTCCCAGCTGATGAATTAGACATCTCGAGTAAACAAATTTTCCTAATCTTTCTGTTCAAGCGCCATCTAC,0.795
14,GATGATTGTTCTCCCAGCTGATGAATTTCTTGGTTCGAGTAAACAAATTTTCCTAATCTTTCTGTTCAAGCGCCATCTAC,0.692
15,GATGATTGTTCTCCCAGCTGATGAATTTCTAATGTCGAGTAAACAAATTTTCCTAATCTTTCTGTTCAAGCGCCATCTAC,0.33
16,GATGATTGTTCTCCCAGCTGATGAATTCGTGACATCGAGTAAACAAATTTTCCTAATCTTTCTGTTCAAGCGCCATCTAC,0.658
17,GATGATTGTTCTCCCAGCTGATGAATTCCATGTATCGAGTAAACAAATTTTCCTAATCTTTCTGTTCAAGCGCCATCTAC,0.914
18,GATGATTGTTCTCCCAGCTGATGAATTTCATAACTCGAGTAAACAAATTTTCCTAATCTTTCTGTTCAAGCGCCATCTAC,0.332
19,GATGATTGTTCTCCCAGCTGATGAATTCGGGCCGTCGAGTAAACAAATTTTCCTAATCTTTCTGTTCAAGCGCCATCTAC,0.35
20,GATGATTGTTCTCCCAGCTGATGAATTGTGGAAATCGAGTAAACAAATTTTCCTAATCTTTCTGTTCAAGCGCCATCTAC,0.46
21,GATGATTGTTCTCCCAGCTGATGAATTTCTGGACTCGAGTAAACAAATTTTCCTAATCTTTCTGTTCAAGCGCCATCTAC,0.192

row,Sequence,binding signal (RPM ratio (pull-down/input))
1,GATGATTGTTCTCCCAGCTGATGAATTGGCGGGCTCGAGTAAACAAATTTTCCTAATCTTTCTGTTCAAGCGCCATCTAC,0.287
2,GATGATTGTTCTCCCAGCTGATGAATTTCTGCTTTCGAGTAAACAAATTTTCCTAATCTTTCTGTTCAAGCGCCATCTAC,0.795
3,GATGATTGTTCTCCCAGCTGATGAATTCGTTTAATCGAGTAAACAAATTTTCCTAATCTTTCTGTTCAAGCGCCATCTAC,0.803
4,GATGATTGTTCTCCCAGCTGATGAATTACAACGTTCGAGTAAACAAATTTTCCTAATCTTTCTGTTCAAGCGCCATCTAC,0.659
5,GATGATTGTTCTCCCAGCTGATGAATTGAGCCGTTCGAGTAAACAAATTTTCCTAATCTTTCTGTTCAAGCGCCATCTAC,0.704
6,GATGATTGTTCTCCCAGCTGATGAATTCCTATGGTCGAGTAAACAAATTTTCCTAATCTTTCTGTTCAAGCGCCATCTAC,0.291
7,GATGATTGTTCTCCCAGCTGATGAATTCAAAAGATCGAGTAAACAAATTTTCCTAATCTTTCTGTTCAAGCGCCATCTAC,0.175
8,GATGATTGTTCTCCCAGCTGATGAATTTTCTCTGTCGAGTAAACAAATTTTCCTAATCTTTCTGTTCAAGCGCCATCTAC,0.238
9,GATGATTGTTCTCCCAGCTGATGAATTGCACGTGTCGAGTAAACAAATTTTCCTAATCTTTCTGTTCAAGCGCCATCTAC,1.17
10,GATGATTGTTCTCCCAGCTGATGAATTCTGGTTATCGAGTAAACAAATTTTCCTAATCTTTCTGTTCAAGCGCCATCTAC,0.943
11,GATGATTGTTCTCCCAGCTGATGAATTACGTAAATCGAGTAAACAAATTTTCCTAATCTTTCTGTTCAAGCGCCATCTAC,0.468
12,GATGATTGTTCTCCCAGCTGATGAATTGTCGCCGTCGAGTAAACAAATTTTCCTAATCTTTCTGTTCAAGCGCCATCTAC,0.69
13,GATGATTGTTCTCCCAGCTGATGAATTCCGCGCGTCGAGTAAACAAATTTTCCTAATCTTTCTGTTCAAGCGCCATCTAC,1.94
14,GATGATTGTTCTCCCAGCTGATGAATTTCAGGATTCGAGTAAACAAATTTTCCTAATCTTTCTGTTCAAGCGCCATCTAC,0.242
15,GATGATTGTTCTCCCAGCTGATGAATTCCTTGTCTCGAGTAAACAAATTTTCCTAATCTTTCTGTTCAAGCGCCATCTAC,0.395
16,GATGATTGTTCTCCCAGCTGATGAATTTTTCCCTTCGAGTAAACAAATTTTCCTAATCTTTCTGTTCAAGCGCCATCTAC,0.197
17,GATGATTGTTCTCCCAGCTGATGAATTCGCCTCTTCGAGTAAACAAATTTTCCTAATCTTTCTGTTCAAGCGCCATCTAC,2.14
18,GATGATTGTTCTCCCAGCTGATGAATTCCTCAGCTCGAGTAAACAAATTTTCCTAATCTTTCTGTTCAAGCGCCATCTAC,0.211
19,GATGATTGTTCTCCCAGCTGATGAATTTACTCTCTCGAGTAAACAAATTTTCCTAATCTTTCTGTTCAAGCGCCATCTAC,0.467
20,GATGATTGTTCTCCCAGCTGATGAATTGTAGTCATCGAGTAAACAAATTTTCCTAATCTTTCTGTTCAAGCGCCATCTAC,1.06
21,GATGATTGTTCTCCCAGCTGATGAATTTGGGCAGTCGAGTAAACAAATTTTCCTAATCTTTCTGTTCAAGCGCCATCTAC,0.391
